# According to PubChem BioAssay AID1671194 (National Center for Advancing Translational Sciences (NCATS), 2021):
# Hit rate of the full screen: of about 140,000 compounds, about 240 (0.17%) were called active. The inconclusive results got no clear call from the source; some entries with a clear call stand among them for comparison. The call rests on the fitted dose curve; in most records, active means well fitted inhibition curve with a large enough effect; inconclusive means small, poorly fitted or top-dose-only effect; inactive means no such curve, though single readings can be large or run the other way. Potencies of inconclusive entries are doubtful fits and often do not repeat.
# Test: Primary qHTS assay for inhibitors of alpha-synuclein gene (SNCA) expression; further: nearly all actives have a fitted effect of over 45% in size
# Conditions: HEK-293 SNCA-luciferase knock-in, luminescence, 24 h; series mostly up to 57.2 µM
# Potency means the concentration at half of the fitted maximal effect; tags describe the fitted curve by direction and shape.
row,SMILES,Potency
1,Cc1ccc(-n2ncc3c(Nc4ccc(Oc5ccccc5)cc4)ncnc32)c(C)c1,"inconclusive: 17.8 µM [inhibitor, single point]"
2,COc1ccc(C(=O)N2CCOCC3(CN(Cc4cccc(Cl)c4)C3)C2)cc1OC,"inconclusive: 56.2 µM [inhibitor, single point]"
3,COc1ccc(Cl)cc1NC(=O)CSc1nc(=O)n(Cc2ccco2)c2c1CCC2,"inconclusive: 39.8 µM [inhibitor, single point]"
4,COc1ccccc1-c1cccc(CN2CCCC(C(=O)Nc3ccc(F)cc3)C2)c1 (configuration not stated),"inconclusive: 20 µM [inhibitor, partial curve, poor fit]"
5,CN(C(=O)CSc1nc2ccc(NC(=O)c3cccc(F)c3)cc2s1)c1ccccc1,"inconclusive: 39.8 µM [inhibitor, single point]"
6,Cc1ccc(-c2cc(C(=O)NCc3cccc(Cl)c3)c3cnn(C)c3n2)c(C)c1,inactive
7,COc1ncnc(NS(=O)(=O)c2ccc(N)cc2)c1OC,"inconclusive: 4.29 µM [inhibitor, full curve]"
8,CCC(Sc1nc2nccnc2c(=O)n1Cc1ccccc1Cl)C(=O)NC1CCCCC1 (configuration not stated),active: 3.55 µM
9,COc1ccc(OC)c(CNC(=O)c2cccc3c2CCN3C(=O)c2ccc(F)cc2)c1,inactive
10,COc1ccc(-c2cc(N3CCCC(NC(=O)c4cccc(Cl)c4)C3)n[nH]2)cc1 (configuration not stated),inactive
11,COc1ccc(NC(=O)c2c(NCc3ccc(C)o3)sc3c2CCCCC3)c(OC)c1,"inconclusive: 3.55 µM [inhibitor, single point]"
12,COc1ccc(NC(=O)CC2Oc3ccc(C)cc3NC2=O)cc1Cl (configuration not stated),"inconclusive: 5.01 µM [inhibitor, partial curve]"
13,COc1ccc([C@H]2C[C@@H](O)[C@@H](O)[C@@H]2NS(=O)(=O)c2ccc(Cl)cc2)cc1,inactive
14,COCc1ccc2c(c1)c(OC(C)(C)C(=O)Nc1cc(C)nn1C)nn2Cc1cccnc1,inactive
15,CC(C)NC(=O)[C@@H]1C[C@H](N)CN1C(=O)c1cccc(S(C)(=O)=O)c1,"inconclusive: 12.6 µM [inhibitor, partial curve, poor fit]"
16,O=C(NCCc1ccccc1)N1CCN(C(=O)N2CC3CC(C2)[C@H]2CCCC(=O)N2C3)CC1 (some centres not stated),inactive
17,O=C(Cn1ccn2nc3c(c2c1=O)CCCCC3)Nc1ccc2c(c1)OCCO2,"inconclusive: 3.16 µM [inhibitor, single point]"
18,O=C(COc1ccccc1)Nc1ccc([C@@H](O)[C@H]2COCC(=O)N2Cc2ccccc2F)cc1,"inconclusive: 39.8 µM [inhibitor, single point]"
19,Cc1cc(C)n(CCC(=O)N2CCCC(c3nnnn3C)C2)n1 (configuration not stated),inactive
20,CCOC(=O)c1c(NC(C)=O)c2c3c(sc2n1Cc1c(C)cc(C)cc1C)CCCC3,"inconclusive: 39.8 µM [inhibitor, single point]"
21,CN(C)c1cccc(-c2n[nH]c3c2CC(=O)N(CC2CC2)C3)c1,inactive

row,SMILES,Potency
1,Cc1ccc(NC(=O)c2ccc(NC(=O)N3CCSc4ncccc43)cc2)c(Cl)c1,"inconclusive: 8.91 µM [inhibitor, full curve]"
2,COC(=O)CCC(=O)N1CCCC(CCc2c(F)cccc2F)C1 (configuration not stated),"inconclusive: 8.91 µM [inhibitor, single point]"
3,O=C(Nc1ccccc1)c1cnc(N2CCCCC2)c2ccccc12,"inconclusive: 2.24 µM [inhibitor, full curve, poor fit]"
4,COc1ccc(-c2cc(C)no2)cc1S(=O)(=O)N1CCN(c2cccc(C)c2)C(C)C1 (configuration not stated),"inconclusive: 39.8 µM [inhibitor, single point]"
5,O=C(Nc1ccc(Cl)cc1)c1cnn2c1NC(c1ccccc1)=CC2c1ccccc1 (configuration not stated),"inconclusive: 31.6 µM [inhibitor, single point]"
6,O[C@@H]1C[C@@H](c2nc(-c3ccccc3)no2)N(Cc2cc3ccccc3o2)C1,inactive
7,O=C(O)c1cccc(-c2cc(C(F)(F)F)ccc2Cl)c1,inactive
8,CCc1ccc(NC(=O)CSc2nc3c([nH]c4ccccc43)c(=O)n2-c2ccc(C)cc2)cc1,"inconclusive: 7.08 µM [inhibitor, single point]"
9,O=C1CC2(CCN(Cc3ccc(C(F)(F)F)cc3)CC2)Oc2ccccc2N1c1ccccc1,"inconclusive: 39.8 µM [inhibitor, single point]"
10,COc1ccc(OC)c(NC(=O)c2c(NCc3cccs3)sc3c2CCCCC3)c1,"inconclusive: 5.01 µM [inhibitor, partial curve, poor fit]"
11,NC(=O)Cc1c[nH]c2ncc(-c3cccc(C(F)(F)F)c3)cc12,inactive
12,Fc1ccccc1Nc1c2c(nc3ccccc13)CCC2,"inconclusive: 39.8 µM [inhibitor, single point]"
13,COc1ccccc1NC(=O)C1c2ccccc2C(=O)N(Cc2ccccc2)C12CCCC2 (configuration not stated),inactive
14,O=C(c1c[nH]c(=O)cn1)N1C[C@H](CO)C[C@H](CN2CCOCC2)C1,"inconclusive: 3.55 µM [inhibitor, single point]"
15,CCN(CC)S(=O)(=O)c1ccc(NC(=O)Cn2ncc3c([nH]c4ccccc43)c2=O)cc1,"inconclusive: 2.51 µM [inhibitor, single point]"
16,O=[S+]1([O-])NC2(CCN(Cc3ccncc3)CC2)COc2ccccc21,"inconclusive: 0.708 µM [inhibitor, full curve, poor fit]"
17,COc1ccc(CCC(=O)N2C[C@@H](Oc3cccnc3)C[C@H]2C(=O)N2CCOCC2)cc1,inactive
18,COCCC1(CO)CCCN(CC(N)=O)C1 (configuration not stated),inactive
19,Cn1cc(-c2cnc3[nH]cc(CC(=O)N4CCCC4)c3c2)cn1,"inconclusive: 31.6 µM [inhibitor, single point]"
20,CCC(=O)N1CCc2cc(S(=O)(=O)NC(Cc3ccccc3)C(=O)Nc3ccc(C)cc3)ccc21 (configuration not stated),"inconclusive: 39.8 µM [inhibitor, single point]"
21,Cc1cc(C(=O)N2CCCC(c3noc(COc4ccccc4)n3)C2)nn1C (configuration not stated),"inconclusive: 11.2 µM [inhibitor, partial curve, poor fit]"
